Like-named read-outs stand apart in the source and are kept apart here.
What was measured:
MRSA 43300 biofilm = assay: Biofilm inhibition, crystal violet assay; format: cell-based; settings: Staphylococcus aureus, 30 h, read-out: Biofilm inhibition IC50
Procedure: A standard static crystal violet assay was used to quantify biofilm inhibition.^45 Cultures of S. aureus or S. epidermidis were grown overnight in TSBG (tryptic soy broth with 5% glucose) at 37° C. with shaking. These cultures were used to inoculate fresh TSBG to a calculated optical density of 0.01 at 600 nm (OD600). […] Untreated aliquots were used as a positive control and water served as a negative control. 100 μl of these suspensions were added to the wells of a 96-well polyvinylchloride microtiter plate. […] After incubation, media was discarded and the plates were washed with water to remove non-adherent cells. Adherent biofilms were stained with 110 μl of crystal violet (0.1% in water) and incubated at room temperature for thirty minutes. […] Absorbance at 540 nm was recorded using a BioTek Synergy H1 microplate reader. The absorbance of the negative control lanes was subtracted from the experimental values to account for background staining. Percent inhibition was calculated by comparison of the absorbance values of control versus treated wells under identical conditions.
Antibiotic resistance and biofilm formation share similar regulatory mechanisms. […] Biofilm inhibition was first assessed in S. aureus 43300, a methicillin-resistant strain (see Table 18). […] The standard deviation is calculated from at least 3 independent experiments.

S. aureus ATCC 29213 [1] = assay: Antibiotic repotentiation (antibiotic MIC with/without compound); format: cell-based, Staphylococcus aureus; settings: oxacillin MIC
Procedure: (§1) The overnight culture was diluted into fresh CAMHB to a concentration of 5×10^5 CFU/ml. […] On the same plate, a standard microdilution MIC with the tested antibiotics and no added compound was also performed to compare the antibiotic MIC in the presence and absence of compound. […] Fold reductions were calculated by dividing the MIC of the antibiotic without compound by the MIC of the antibiotic in the presence of compound.
(§2) The compounds were then analyzed for antibiotic repotentiation activity. […] The tested strains included USA300, which is a common and particularly virulent strain of community-acquired MRSA.

S. aureus USA300 (MRSA) [2] = assay: as above; format: cell-based, Staphylococcus aureus; settings: for Fold Reduction: oxacillin MIC
Procedure: as §1, §2

S. aureus 43300 (MRSA) = assay: as above; format: cell-based, Staphylococcus aureus; settings: for Fold Reduction: oxacillin MIC, S. aureus 43300 (MRSA)
Procedure: as §1, §2

[3] = system: S. epidermidis ATCC 49461 biofilm; assay: Biofilm inhibition, crystal violet assay; format: cell-based; settings: Staphylococcus epidermidis, ATCC49461, 30 h, read-out: Inhibition of biofilm formation IC50
Procedure: A standard static crystal violet assay was used to quantify biofilm inhibition.^45 Cultures of S. aureus or S. epidermidis were grown overnight in TSBG (tryptic soy broth with 5% glucose) at 37° C. with shaking. These cultures were used to inoculate fresh TSBG to a calculated optical density of 0.01 at 600 nm (OD600). […] Untreated aliquots were used as a positive control and water served as a negative control. 100 μl of these suspensions were added to the wells of a 96-well polyvinylchloride microtiter plate. […] After incubation, media was discarded and the plates were washed with water to remove non-adherent cells. Adherent biofilms were stained with 110 μl of crystal violet (0.1% in water) and incubated at room temperature for thirty minutes. The crystal violet staining solution was discarded and plates were washed with water to remove excess stain. The resulting stained biofilms were solubilized with 200 μL of 95% ethanol for 10 minutes. 125 μl of the ethanol solutions were transferred to a clear polystyrene microtiter plate for evaluation. Absorbance at 540 nm was recorded using a BioTek Synergy H1 microplate reader. The absorbance of the negative control lanes was subtracted from the experimental values to account for background staining. Percent inhibition was calculated by comparison of the absorbance values of control versus treated wells under identical conditions.

S. epidermidis 49461 = assay: Antibiotic repotentiation (oxacillin MIC with/without compound); format: cell-based, Staphylococcus epidermidis; settings: +75 μM compound
Procedure: as §1
Antibiotic potentiation in S. epidermidis was also investigated.

S. aureus USA100 (MRSA) [4] = assay: Antibiotic repotentiation (antibiotic MIC with/without compound); format: cell-based, Staphylococcus aureus; settings: +50 μM compound
Procedure: as §1

[5] = system: S. aureus NR-49120 (VRSA); assay: as above; format: cell-based, Staphylococcus aureus; settings: +50 μM compound
Procedure: as §1

S. aureus USA100 (MRSA) [6] = assay: microbe, parasite or virus in culture; format: cell-based; settings: Staphylococcus aureus, 18 h
[7] = system: S. aureus NR-49120 (VRSA); assay: microbe, parasite or virus in culture; settings: Staphylococcus aureus, 18 h
[8] = system: S. aureus ATCC 43300 (MRSA); assay: Minimum inhibitory concentration, broth microdilution; format: cell-based; settings: Staphylococcus aureus, 18 h
Procedure: as §2

S. aureus ATCC 29213 [9] = assay: as above; format: cell-based; settings: Staphylococcus aureus, ATCC29213, 18 h
Procedure: as §2

S. aureus USA300 (MRSA) [10] = assay: as above; format: cell-based; settings: Staphylococcus aureus, 18 h
Procedure: as §2

[11] = system: various S. aureus strains; assay: microbe, parasite or virus in culture; settings: Staphylococcus aureus, read-out: MICs
[12] = +50 μM compound, S. aureus USA300 (MRSA)

Clc1ccc2c(c1)C(N1CCNCC1)=Nc1ccccc1O2 [Amoxapine, 2-chloro-11-(1-piperazinyl)dibenz[b,f][1,4]oxazepine]
IC50 (MRSA 43300 biofilm; MRSA 43300, crystal violet): 333 µM | Fold Reduction (S. aureus ATCC 29213 [1]; +75 μM compound): 1 | Fold Reduction (S. aureus ATCC 29213 [1]; +150 μM compound): 2 | Fold Reduction (S. aureus USA300 (MRSA) [2]; +75 μM compound, USA300 (MRSA)): 2 | Fold Reduction (S. aureus USA300 (MRSA) [2]; +150 μM compound, USA300 (MRSA)): 16 | Fold Reduction (S. aureus 43300 (MRSA); +75 μM compound): 4 | Fold Reduction (S. aureus 43300 (MRSA); +150 μM compound): 16 | IC50 [3]: 156 µM | Fold Reduction (S. epidermidis 49461): 4

Clc1ccc2c(c1)CCc1cccnc1C2=C1CCNCC1 [Desloratadine]
Oxacillin MIC (S. aureus USA100 (MRSA) [4]): 256 µg/mL | Fold Reduction (S. aureus USA100 (MRSA) [4]; oxacillin MIC): 1 | Oxacillin MIC [5]: 128 µg/mL | Fold Reduction ([5]; oxacillin MIC): 1 | IC50 (MRSA 43300 biofilm): > 200 µM | MIC (S. aureus USA100 (MRSA) [6]): > 200 µM | MIC [7]: > 200 µM | MIC [8]: > 200 µM | MIC (S. aureus ATCC 29213 [9]): > 200 µM | MIC (S. aureus USA300 (MRSA) [10]): > 200 µM | MIC [11]: > 200 µM | Oxacillin MIC (S. aureus USA300 (MRSA) [2]; [12]): 32 µg/mL | Fold Reduction (S. aureus USA300 (MRSA) [2]; [12]): 1 | Oxacillin MIC (S. aureus 43300 (MRSA); +50 μM compound, S. aureus ATCC 43300 (MRSA)): 16 µg/mL | Fold Reduction (S. aureus 43300 (MRSA); +50 μM compound): 2

CN1CCN(C2=Nc3cc(Cl)ccc3Nc3ccccc32)CC1 [Clozapine, 8-chloro-11-(4-methyl-1-piperazinyl)-5H-dibenzo[b,e][1,4]diazepine]
Fold Reduction (S. aureus 43300 (MRSA); +75 μM compound): 1 | Fold Reduction (S. aureus 43300 (MRSA); +150 μM compound): 8 | IC50 [3]: 149 µM | Fold Reduction (S. epidermidis 49461): 1
